Measured values from PubChem BioAssay AID540317 (National Center for Advancing Translational Sciences (NCATS), 2011).
The whole screen tested about 390,000 compounds, of which about 2,200 (0.56%) were called active. The inconclusive results got no clear call from the source; some entries with a clear call stand among them for comparison. Calls come from the whole dose curve; as a rule, active = well fitted inhibition curve with a large enough effect; inconclusive = small, poorly fitted or top-dose-only effect; inactive = no such curve, though single readings can be large or run the other way. A potency beside an inconclusive call is a rough fit, not a confirmed value.

Target: Chromobox protein homolog 1 (Homo sapiens) (UniProt P83916)
Assay: HTS for Inhibitors of HP1-beta Chromodomain Interactions with Methylated Histone Tails; note: nearly all actives have a fitted effect of over 70% in size
Conditions: AlphaScreen HP1-beta / biotin-H3K9me3 peptide binding; series mostly up to 114 µM
Outline: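 Compound inhibition of the preformed complex between 50 nM HP1-beta and 50 nM biotinylated H3K9me3 peptide was read by AlphaScreen. Buffer was PBS pH 7.4 with 0.01% Tween-20. Incubations ran 30 min at room temperature, with 10 ug/mL donor/acceptor beads.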
Potency is the fitted concentration of half-maximal effect; tags give direction and shape of the fitted curve.

UniProt P83916, sequence (P83916 whole entry, looked up): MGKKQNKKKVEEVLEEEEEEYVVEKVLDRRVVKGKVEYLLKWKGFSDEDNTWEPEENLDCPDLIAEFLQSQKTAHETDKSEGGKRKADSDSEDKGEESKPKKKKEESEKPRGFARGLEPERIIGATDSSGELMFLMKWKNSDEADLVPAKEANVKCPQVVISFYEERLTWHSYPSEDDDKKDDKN

Row | SMILES | Potency
1 | COc1ccc(-c2nc(CS(=O)(=O)CC(=O)NCc3ccccc3Br)c(C)o2)cc1 | inactive
2 | CCN(c1ccccc1)S(=O)(=O)c1ccc(OC)c(NC(=O)CNC)c1 | inconclusive: 11.2 µM [inhibitor, full curve]
3 | COCCn1c(=S)[nH]c2cc(C(=O)N3CCN(Cc4ccc5c(c4)OCO5)CC3)ccc2c1=O | inactive
4 | CCOC(=O)c1c(NC(=O)COc2ccc(Cl)cc2C)sc2c1CCCCC2 | inconclusive: 12.6 µM [inhibitor, full curve]
5 | N#Cc1nc(-c2ccco2)oc1NCc1ccccc1Cl | inconclusive: 70.8 µM [inhibitor, partial curve]
6 | Cc1ccc(C(=O)N2C(=S)C(c3ccc(F)cc3)=NC23CCN(C)CC3)cc1 | inconclusive: 10 µM [inhibitor, full curve, poor fit]
7 | Cc1ccc(N=c2c([N+](=O)[O-])nn(-c3ccccc3)n2O)c(C)c1 | inconclusive: 31.6 µM [inhibitor, full curve]
8 | COc1cc(NC(=O)CSc2nc3ncccc3o2)cc(OC)c1 | inconclusive: 89.1 µM [inhibitor, single point]
9 | Nc1ncc(Br)cc1S(=O)(=O)NCCC(=O)N1CCN(c2ccccc2)CC1 | inactive
10 | Cc1ccc(NC2=C(NCCO)C(=O)c3ccccc3C2=O)cc1 | inconclusive: 17.8 µM [inhibitor, full curve, poor fit]
11 | CCn1c(C)nc2cc(C(=O)NNC(=S)Nc3ccc(Cl)cc3Cl)ccc21 | inconclusive: 1.12 µM [inhibitor, full curve, poor fit]
12 | Cc1cccc(NC(=O)Nc2ccccn2)c1C | inactive
13 | COc1cccc(C(=O)NC(=S)Nc2ccc(N(C)C)cc2)c1 | inconclusive: 15.8 µM [inhibitor, full curve, poor fit]
14 | C/C(=N\NC(=S)NC1CCCCC1)c1ccc(C)o1 | inconclusive: 20 µM [inhibitor, full curve]
15 | CSC(=S)N/N=C(\C)c1ccccc1 | inconclusive: 20 µM [inhibitor, partial curve, poor fit]
16 | Cc1cc(C)cc(NC(=O)Nc2cc(S(=O)(=O)N(C)C)ccc2C)c1 | inactive
17 | COc1ccc(NS(=O)(=O)c2ccc(N3CCCC3)c(NC(=S)Nc3ccc(SC(F)F)cc3)c2)cc1 | active: 11.2 µM
18 | CCOc1ccc2c(c1)-c1c(ssc1=S)C(C)(C)N2 | inconclusive: 22.4 µM [inhibitor, full curve, poor fit]
19 | COc1ccc(C(C)(C)NC(=O)C2CCC(=O)N(C3CC3)C2)cc1OC (stereo not drawn) | inactive
20 | COc1cc(OC)c2c(c1C(CCN1CCCC1)c1ccc(N(C)C)cc1)OC(=O)CC2c1ccc(N(C)C)cc1 (stereo not drawn) | inconclusive: 25.1 µM [inhibitor, full curve, poor fit]
21 | COC(=O)c1cc(NC(=O)c2cccnc2)cc(C(=O)OC)c1 | inactive
22 | C/C(=N\Nc1nc2ccccc2[nH]1)c1ccc2c(c1)OCCO2 | inconclusive: 50.1 µM [inhibitor, single point]

Row | SMILES | Potency
23 | Cn1nnnc1NCc1ccc(Cl)cc1 | inactive
24 | CC(C)NCCCOc1ccc(Cl)cc1Br | inconclusive: 44.7 µM [inhibitor, partial curve, poor fit]
25 | COc1ccc(NC(=O)CN(C)CC(=O)Nc2cccc(F)c2)cc1S(=O)(=O)N1CCCCC1 | inconclusive: 28.2 µM [inhibitor, single point]
26 | O=C(N/N=C/c1ccc(-c2ccc(S(=O)(=O)Nc3ncccn3)cc2)o1)c1cc2ccccc2cc1O | active: 28.2 µM
27 | O=c1cc(Br)c(O)c(Br)cc1Br | inconclusive: 50.1 µM [inhibitor, partial curve]
28 | Cc1onc(-c2ccccc2Cl)c1C(=O)Nc1nnc(C2CCCCC2)s1 | inactive
29 | CCCCOc1ccccc1C1NC(=O)NC(C)=C1C(=O)OCCOCC (stereo not drawn) | inactive
30 | CCOC(=O)C(C)N1C(=O)S/C(=C\c2ccc(-c3ccccc3C(=O)O)o2)C1=O (stereo not drawn) | inconclusive: 22.4 µM [inhibitor, full curve]
31 | O=C(Cn1c(=O)oc2ccccc21)Nc1n[nH]c(=S)s1 | inconclusive: 22.4 µM [inhibitor, full curve, poor fit]
32 | Cc1ccc(CNc2ccc(N3CCOCC3)cc2)cc1 | inconclusive: 28.2 µM [inhibitor, full curve]
33 | Clc1ccc(SCCN2CCNCC2)cc1 | inconclusive: 17.8 µM [inhibitor, full curve]
34 | COc1ccccc1CSc1ncc(-c2ccc([N+](=O)[O-])cc2)[nH]1 | inconclusive: 50.1 µM [inhibitor, partial curve]
35 | Cc1ccc(-c2nc3ccccn3c2NCc2ccc3c(c2)OCO3)cc1 | inconclusive: 39.8 µM [inhibitor, partial curve, poor fit]
36 | CCCCCC(=O)NC(=S)NNC(=O)c1ccc([N+](=O)[O-])cc1 | inconclusive: 25.1 µM [inhibitor, single point]
37 | Oc1ccc(N=Nc2n[nH]c(-c3ccc(Cl)cc3)n2)cc1 | inconclusive: 20 µM [inhibitor, partial curve, poor fit]
38 | O=C(Oc1cccc(NC2=NS(=O)(=O)c3ccccc32)c1)c1cccnc1 | inactive
39 | Cc1ccc(NC(=O)CSc2ncc(-c3ccccc3)n2C(=O)c2ccccc2)cc1 | inconclusive: 25.1 µM [inhibitor, partial curve, poor fit]
40 | Cc1ccc(/C=C/C(=O)c2ccccc(=O)c2O)cc1C | inconclusive: 44.7 µM [inhibitor, partial curve]
41 | Cc1c(Br)c([N+](=O)[O-])nn1CCCC(=O)Nc1sc2c(c1C#N)CCC2 | inconclusive: 44.7 µM [inhibitor, partial curve]
42 | CCS(=O)(=O)N1CCCc2cc(C(=O)Nc3cc([N+](=O)[O-])ccc3C)ccc21 | inconclusive: 50.1 µM [inhibitor, partial curve]
43 | COc1cc([N+](=O)[O-])ccc1NC(=S)Nc1cc(C(=O)OC(C)C)cc(C(=O)OC(C)C)c1 | inconclusive: 31.6 µM [inhibitor, partial curve, poor fit]
